Reference: article PMC12136788
This is one part of the list.

T1: UNK ZnF1-3 (human, UniProt Q9C0B0 31-174)
T1 sequence: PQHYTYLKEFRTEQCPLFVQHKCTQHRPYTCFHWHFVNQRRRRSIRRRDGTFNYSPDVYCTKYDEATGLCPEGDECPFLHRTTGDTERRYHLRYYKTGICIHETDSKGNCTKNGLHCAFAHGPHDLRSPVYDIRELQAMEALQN

B1: chr7:141450121:141450122:+_ENSG00000106028_ENST00000265304|hu_mus|hu_hu_hu_mus_True|18_68 (ssRNA)
RNA: GGGAGUUCUACAGUCCGACGAUCUCAUCCGUUCUAUGCCUUUUCUUUUGUCUGGUCACUCAGAAAUAUAAUAUUAUCAGCUAUGAUUGUUGUUGCUUGCCGCCUCACAUUGUUUUUAUCCAUGUAUUCGCCAUAGUCCACUUUCAACAGAGGAUUGAGCAUCA
B2: chr5:71490152:71490153:+_ENSG00000131711_ENST00000296755|hu_hu|motif|central (ssRNA)
RNA: GGGAGUUCUACAGUCCGACGAUCUACAUUGAGAAAUACAACUCCUAAGUCAGGGGAGAUGAGGUUUUUCAUCCAGUCACGGUUUGUGGUGGAGCCCUGGGACUGUUCUUCCUCGAGCUCUGCAAUUUUCCGCUGUAACAUGCUCAACAGAGGAUUGAGCAUCA
B3: chr15:60656694:60656695:-_ENSG00000182718_ENST00000451270|hu_mus|FALSE|FALSE (ssRNA)
RNA: GGGAGUUCUACAGUCCGACGAUCUCUCUGAUAGGCGAAGGCAAUGUCCUGCCUCUGCACAUUGCUGCGGUUUGUCAGGAUGUUGACAAUGGUGACCUCAUCCACUCCUUUGGUCUUGACUGCUGUCUCAAUGUUCAGAGCAUCCAACAGAGGAUUGAGCAUCA
B4: chr2:176793893:176793894:-_ENSG00000144320_ENST00000272748|hu_mus|FALSE|FALSE (ssRNA)
RNA: GGGAGUUCUACAGUCCGACGAUCCAAAGAAAAACGCUGCCAGGUCAUCUUUAUUUUCCUUAACAAAACACACACACACACACAAAAACCAUUUAUAUAUCAUCAUUAUAUUACAAAUAUAAAUAAUACCAAGAAUUCAAGUACCAACAGAGGAUUGAGCAUCA
B5: chr3:72423869:72423870:-_ENSG00000163602_ENST00000477973|hu_mus|FALSE|FALSE (ssRNA)
RNA: GGGAGUUCUACAGUCCGACGAUCGCAGAAUUCAUAAAUAGACAUUUCUAUUUAAAGCAGGAAAAUGAUAAAGUGGCUUCUAAUAACAGUCGUGCACAUGCCAAUAACAGGAAUAUAUUAACAUCUUUUAUUUGCUAGACAAAGCAACAGAGGAUUGAGCAUCA
B6: chr2:117085994:117085995:+_ENSMUSG00000027349_ENSMUST00000028825|mus_mus|FALSE|FALSE (ssRNA)
RNA: GGGAGUUCUACAGUCCGACGAUCAGACUUGGGGACCCCGAGGGCAUCACAUACAGCUUGAACUUCCUGGCAAAUUUCACUAUUUUUAUCUAACUGAGAAUUUUUAUGUUUUUUCUUCUGUAAUAUUUGUAAAGCUUGAAGUUCCAACAGAGGAUUGAGCAUCA
B7: chr11:87793471:87793472:-_ENSMUSG00000020483_ENSMUST00000020775|mus_mus|mus_mus_mus_hu_False|68_78 (ssRNA)
RNA: GGGAGUUCUACAGUCCGACGAUCUGGACUUGAAAAUAAAAGAAUAAGCUGGAUCCCCCCACCCCUUACAGUGUCAACCCUACACGAGAGUUUUGAAGGCGACUCAUGAAAAUCAGCAGCUCAAACGGCAAUGACCACCCCACCCAACAGAGGAUUGAGCAUCA
B8: chr6:41757443:41757444:+_ENSG00000214736_ENST00000398881|hu_mus|hu_hu_hu_mus_False|58_88 (ssRNA)
RNA: GGGAGUUCUACAGUCCGACGAUCGAACCGUGCAGAGGCAACAUCUCGGAAUUCUGCGGGGGAUGGGGGGGCAGUGGGAAACUAGGCAGGCAAGGAGAGGGAGUCAACUUCAGCUGCCACUCAGGUAGGAUCUUGUGGUCACAGCAACAGAGGAUUGAGCAUCA
B9: chr1:168169525:168169526:+_ENSG00000143155_ENST00000367833|hu_hu|FALSE|FALSE (ssRNA)
RNA: GGGAGUUCUACAGUCCGACGAUCGUGCUCACUGCUCAUGAGACACACACAUCACUACUGCUGAGGUCCCACUUUGUGAUAAUUUAGAAAUCAUCCAAAUUUAACUCCAGAAAAUAUAAAUCUGGAAUAUGAAUGUGAAGACAGCAACAGAGGAUUGAGCAUCA
B10: chr4:148551591:148551592:-_ENSMUSG00000063077_ENSMUST00000060537|mus_hu|mus_mus_mus_hu_False|48_78 (ssRNA)
RNA: GGGAGUUCUACAGUCCGACGAUCACCUGACAAAAUUAAAUAUCCCUGUAAAUUAGACAAGAAGCAGCAGGCAACAAAGUCUUUGCUUUGAAAUAUGUGCCAGGAAAAGUCAUCUUGUUUUUAGAUCUCAAGAGACAGUUCACACAACAGAGGAUUGAGCAUCA
B11: chr7:140402705:140402706:+_ENSG00000090266_ENST00000247866|hu_hu|FALSE|FALSE (ssRNA)
RNA: GGGAGUUCUACAGUCCGACGAUCUCCGCUGAAGAACUCGCUCUGGAACACCUGGGAUCUGGUCAGCUGGGGGAACUGUCUAUACCGGGGCUCAAUGUGCACACCACCACCGGCAUGACGGACUCCACCAUCUCCAGCAGUCCGCAACAGAGGAUUGAGCAUCA
B12: chr7:100804371:100804372:+_ENSG00000106367_ENST00000337619|hu_mus|FALSE|FALSE (ssRNA)
RNA: GGGAGUUCUACAGUCCGACGAUCCAGGCCUCUCCCCCAACCUUCCCUUCCCUCCAAGUAGCAAGGUUAGAAAAACGUUAACUCUGUGGCUCCCUUCCCUGGCCCUGGCUGGACACUGGAGCCCAGGAGGAAGUGGGGGCUGGACAACAGAGGAUUGAGCAUCA
B13: 90661419_90661539_1048_CDS_ENSG00000112182_ENST00000537989|human|control|control (ssRNA)
RNA: GGGAGUUCUACAGUCCGACGAUCGUUCAGGAGCUGGGUCUGCAGGAAGCUGAAGCAGGAGUCCUCCAGGUUGUGCAUGCGCAGGAACUCAGCACAGCGGAUGACCUCGCGGAUGUUUUCUCUGCUGAGUAACAGCUUGGCAGUCAACAGAGGAUUGAGCAUCA
B14: 120833781_120834319_905_CDS_ENSMUSG00000025162_ENSMUST00000018274|mouse|control|control (ssRNA)
RNA: GGGAGUUCUACAGUCCGACGAUCCCCCUGCCAGGGGAGAGAGCCCAGGUUGAAGUACAUCAGCACGUACCCCAGAGACUCCAAGUCAUCCCUUCGAGAUUGUUCAAUGCCAAGGUGCGUGUUGAUGGAGGCAUAGCGUGCUGUCAACAGAGGAUUGAGCAUCA

Molecular target: T1, UNK ZnF1-3
Test: nsRBNS (natural sequence RNA bind-n-seq); RBNS binding buffer (assumed for nsRBNS): 25 mM Tris pH 7.5, 150 mM KCl, 3 mM MgCl2, 0.01% Triton X-100, 500 ug/ml BSA, 20 U/ml SUPERase-In, 4 C; UNK is unkempt and MSI1 is Musashi-1; names of the RNAs are library labels; protein concentration not given here; high values mean tight binding

Binder | binding signal [enrichment R]
B1 | 0.537
B2 | 0.83
B3 | 0.495
B4 | 2.01
B5 | 0.996
B6 | 1.24
B7 | 1.77
B8 | 2.22
B9 | 1.48
B10 | 1.29
B11 | 0.798
B12 | 0.519
B13 | 0.964
B14 | 0.906
